Among all 150,000 compounds or so, about 540 (0.36%) showed an effect of 50% or more. Some of the results follow.

For this test, the system named is Plasmodium falciparum. Description: Primary screen in NF54 nanoGlo assay, in single point, at 2uM, 72h; a lower Z score goes with more inhibition. In kind it is functional, Erythrocyte. Particulars: timepoint 72 hour.
`CC[C@H](C)N(CC(=O)Nc1cccc(C)c1C)C(=O)c1cscn1`: the “% Inhibition” value is recorded as -2% and the Z score is 0.3.
Turning to `O=C(Cn1ccccc1=O)N1CC[C@@]2(CCCN(CC3CC3)C2=O)C1`, the “% Inhibition” value was determined as 2% and the Z score is reported as -0.33.
The corresponding values for `c1ccc(CNc2nnc(-c3ccco3)o2)cc1` are -22% and 2.26.
For the molecule `O=C(c1c(F)cccc1F)N1CCN(c2nc3nccc(-c4cccs4)n3n2)CC1`, the “% Inhibition” value is reported as 5% and the Z score was -0.52.
The corresponding values for `COCCN1CCC[C@H](NC(=O)c2cn(C)nc2COC)C1` are -4% and 0.52.
The matching figures for `CCCc1[nH]nc(-c2ccccc2OC)c1NC(=O)c1ccc2c(c1)OCO2`: 7% and -0.91.
For the molecule `Cc1ccc(C2CN(C(=O)c3ccccc3C)CC2C(=O)NCc2ccccn2)cc1` (stereo unspecified), the “% Inhibition” value was -10% and the Z score is 1.54.
Regarding `Cc1noc(C)c1CC(=O)N1CC[C@H](n2cc(COc3cnccn3)nn2)C1`, the “% Inhibition” value was -8% and the Z score was 1.14.
The matching figures for `CCC(CC)(C(=O)N1CC[C@H](OC(F)F)C1)c1ccc(OC)c(OC)c1`: -29% and 3.41.
With `Cc1nc(-c2ccc(C)c(-n3cc(C(=O)Nc4ccc(F)c(Cl)c4)c(C)n3)c2)no1`, the “% Inhibition” value is -6% and the Z score is 0.68.
For `Cc1nc([C@H](NC(=O)c2cnsn2)c2ccc(Cl)cc2)no1`, the “% Inhibition” value is on record as -2% and the Z score turned out to be 0.27.
With `Cc1ccc(C)n1[C@@H](C)C(=O)N1CCCC1`, the “% Inhibition” value is given as -8% and the Z score is on record as 1.09.
With `c1ncnc(NCCCCN2CCCCCC2)n1`, the “% Inhibition” value is on record as -3% and the Z score is 0.56.
For `CC(C)NC(=O)[C@@H]1C[C@@H](NC2CCN(Cc3ccccc3)CC2)CN1Cc1ccccc1Cl`, the “% Inhibition” value amounted to 6% and the Z score is -0.77.
As to `CCCCCOCC(=O)N1C2CCCC1CC(F)(F)C2`, the “% Inhibition” value is recorded as -9% and the Z score came out at 1.22.
As to `COc1cccc(NS(=O)(=O)c2c(C)c(-c3nnc(C4CC4)o3)n(C)c2C)c1`, the “% Inhibition” value is -6% and the Z score is 0.8.
In the case of `CCC(CC)C(=O)N1CCc2cc(S(=O)(=O)N3CCOCC3)ccc21`, the “% Inhibition” value is -5% and the Z score was 0.48.
The matching figures for `Cc1c(C(=O)OCc2ccccc2)sc(=S)n1-c1ccc(Cl)cc1`: -19% and 3.52.
`CN1CCCOc2cccc(c2)[C@@H]2N(C(=O)CCn3cncn3)CC[C@]23C(=O)N(CC1=O)c1ccccc13`: the “% Inhibition” value was -17% and the Z score is recorded as 1.97.
Consider `CCn1c(C2CCN(C(=O)Nc3ccccc3Cl)CC2)nn(CCOC)c1=O`, for which the “% Inhibition” value was found to be 14% and the Z score is recorded as -1.57.
Turning to `CCCc1cnc(NCCn2cnc(C)c2C)nc1`, the “% Inhibition” value was -10% and the Z score is listed as 1.07.
Consider `NC(=O)CN1CCN(Cc2nc(-c3cccs3)no2)CC1`, for which the “% Inhibition” value is reported as -16% and the Z score is 2.78.
In the case of `COc1cccc2c(=O)n([C@H]3CCCC[C@@H]3O)cnc12`, the “% Inhibition” value amounted to 6% and the Z score is recorded as -1.2.
On to `Cc1nc(NCCc2ccccc2F)cc([C@H]2C[C@@H](N)C2)n1`, for which the “% Inhibition” value is listed as 3% and the Z score is -0.58.
The corresponding values for `CN(CC1CCCCC1)C(=O)COc1ccc(C#N)c(F)c1` are -19% and 3.54.
The corresponding values for `C[C@]1(CO)CCCN(c2nc(-c3ccccc3)nc3c2CCNCC3)C1` are -11% and 1.98.
On to `CCCN(CCC)Cc1ccc(C(=O)N2CC=CC2)cc1`, for which the “% Inhibition” value is on record as 4% and the Z score is given as -0.46.
Consider `O=c1[nH]nc(-c2ccccc2)cc1Cc1ccc2c(c1)OCO2`, for which the “% Inhibition” value was -16% and the Z score was 2.35.
Regarding `COc1ccc(CN2CCc3c(c(=O)n4ncc(C(=O)N5CCOCC5)c4n3C)C2)cc1`, the “% Inhibition” value is -15% and the Z score turned out to be 1.35.
The matching figures for `O=C(NC1CCCc2c(O)cccc21)C1COCCN1CC(F)F` (stereo unspecified): -13% and 2.79.
Take `O=C(c1nnn2c1c(=O)[nH]c1cc(F)ccc12)N1CCN(c2ccc(F)cc2)CC1`: the “% Inhibition” value is 7% and the Z score is listed as -1.27.
With `CCc1nn(C)cc1CNC(=O)[C@@](O)(CC)c1cccc(Cl)c1`, the “% Inhibition” value is on record as -10% and the Z score stood at 1.3.
For the molecule `O=C1NCCN2CCN(Cc3cnc4c(-c5ccccc5)cnn4c3)C[C@@H]12`, the “% Inhibition” value is recorded as -5% and the Z score was 0.59.
The corresponding values for `O=C(c1ccccc1)c1ccc2n1CC[C@H]2C(=O)N1CCC(N2CCCCC2)CC1` are 30% and -3.4.
As to `O=C(c1cc(-c2ccoc2)n[nH]1)N1CCC[C@H](N2CCOCC2)CC1`, the “% Inhibition” value is recorded as -10% and the Z score came out at 1.41.
`CCCCCOCC(=O)N1CC[C@H](c2ccc3cccnc3n2)C1`: the “% Inhibition” value turned out to be 0% and the Z score is -0.05.
Take `O=C(Nc1nc(-c2ccccn2)cs1)c1ccc2ccccc2n1`: the “% Inhibition” value is -3% and the Z score is given as 0.44.
In the case of `Cc1cc(CN(C)c2cc(NCC3CC3)ncn2)no1`, the “% Inhibition” value is listed as -10% and the Z score was found to be 1.5.
Consider `O=C(O)[C@H]1CCN(C(=O)NCCOCc2ccc(Cl)cc2Cl)C1`, for which the “% Inhibition” value is on record as -17% and the Z score came to 2.03.
As for `CCc1nc(N(C)C[C@H]2CC(=O)N(C(C)(C)C)C2)no1`, the “% Inhibition” value is -5% and the Z score stood at 0.8.
The matching figures for `CN(C(=O)C[C@H]1CCCOC1)c1ccc(Br)cc1Cl`: 2% and -0.27.
For `CCOc1ncccc1CNC(=O)c1scnc1C`, the “% Inhibition” value is on record as -7% and the Z score is on record as 1.47.
As for `O=C(Cn1cc(-c2ccccc2)ncc1=O)NC[C@@H]1CCCN2CCCC[C@H]12`, the “% Inhibition” value is reported as -8% and the Z score was determined as 0.97.
The corresponding values for `CCN(CC)C(=O)CN1C(=O)C2(OCC(C)(c3ccccc3)CO2)c2ccccc21` (stereo unspecified) are -9% and 1.04.
For the molecule `O=C(NCc1ccc(F)c(Cl)c1)C1CCN(c2cnc3nccnc3c2)CC1`, the “% Inhibition” value stood at 9% and the Z score was -1.64.
Regarding `O=C1C2C(C(=O)N1c1cccc3ccccc13)C1(Br)c3ccccc3C2(Br)c2ccccc21` (stereo unspecified), the “% Inhibition” value was 5% and the Z score is -0.78.
`Cc1ccc(-c2nc(CC(=O)N(c3ccc(N(C)C)cc3)[C@@H](C)c3ccccn3)cs2)o1`: the “% Inhibition” value is listed as 5% and the Z score is on record as -0.64.
For the molecule `COc1ccc(-c2nn3c(nc2=O)-c2ccccc2NC32CC3CCC2C3)cc1` (stereo unspecified), the “% Inhibition” value came to 3% and the Z score is reported as -0.26.
As to `C[C@@H](Cc1ccsc1)N(C)S(=O)(=O)c1cnn(C)c1`, the “% Inhibition” value is 4% and the Z score is -0.42.
On to `Cc1n[nH]c2c1CN(CC(=O)N1C[C@@H](C)O[C@@H](C)C1)CC2`, for which the “% Inhibition” value came out at 0% and the Z score was 0.02.
The corresponding values for `Cc1ccc(C(=O)N2CCC3(CCN(C)C3=O)CC2)cc1Cl` are -8% and 1.36.
As to `Cc1ccc(F)cc1NC(=O)Cn1nc(N2CCC(C)CC2)c2ccccc2c1=O`, the “% Inhibition” value was 2% and the Z score is listed as -0.29.
As for `C[C@H](O)c1cn(CC(=O)NCC2CCC(C(C)(C)C)CC2)nn1` (stereo partly specified), the “% Inhibition” value is on record as -2% and the Z score was determined as 0.21.

Source of the values: ChEMBL document CHEMBL4888484, “Replenishing the malaria drug discovery pipeline: Screening and hit evaluation of the MMV Hit Generation Library 1 (HGL1) against asexual blood stage Plasmodium falciparum ,using a nano luciferase reporter read-out” (2022).
